# Data published in the supplement of paper PMC10126150.
# Values marked as one replicate rest on one cluster of the flow cell; about a third of the high ones do not repeat.
# Tested on: ATP
# Test: switch fluorescence ratio, 500 uM ATP over buffer (Cy3 cluster intensity, sum of 5 cycles each) (fold (ratio)); higher = stronger signal-on switching upon ATP binding; sequences stand for … in TCGTCGGCAGCGTCAGATGTGTATAAGAGACAGTTTTTTTTTTTTTTTTTTTTTTTTT…TC
# Conditions: aptamer strand: ATP DNA aptamer (quencher-CACCTGGGGGAGTATTGCGGAGGAAGG + anchor), 100 nM annealed; ATP concentration: 500 uM; one replicate
# In short: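 Clusters with intensities outside 100-1000 RFU were excluded. The remaining Cy3-labelled switching-strand clusters on a modified Illumina MiSeq flow-cell had been annealed to 100 nM quencher-labelled ATP aptamer and imaged in selection buffer, then after 15 min with 500 uM ATP at 22 °C, for five cycles separated by NaOH stripping and re-annealing. The fluorescence ratio, averaged per switch-domain sequence, is each cluster's summed target-cycle Cy3 intensity over its summed buffer-cycle Cy3 intensity.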
# 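Further: ATP exposure 15 min at 22 °C before imaging.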
row,Sequence,switch fluorescence ratio
1,CAATTAGCTT,0.996
2,CAATTAGTCA,0.994
3,CAATTATCCT,1.05
4,CAATTCGGTT,0.975
5,CAATTGCTTG,1.03
6,CAATTGGGTA,1.07
7,CAATTGTCCG,1.01
8,CAATTTCGCA,1.13
9,CAATTTGAGC,1.28
10,CACAAAGGGC,1
11,CACAACAAGT,1
12,CACAACGCAG,1.05
13,CACAAGTATA,1.07
14,CACAATGACA,1.12
15,CACACAACTA,1.14
16,CACACACTCC,1.5
17,CACACAGCCA,1.13
18,CACACTGTGC,1.05
19,CACAGCATGT,1.02
20,CACAGGACTT,1.09
21,CACAGGCCGA,1.05
22,CACAGTAGGT,1.05
23,CACAGTCTAA,0.982
24,CACATAGAGT,1.06
25,CACATAGGA,1.01
26,CACATCAGTC,1.03

row,Sequence,switch fluorescence ratio
1,CACATCGTTA,0.969
2,CACATGGTTT,0.943
3,CACCAAAATG,1.02
4,CACCAACCTC,1.19
5,CACCACATTT,1.05
6,CACCAGGGAC,1.2
7,CACCATCGAA,1.01
8,CACCATGCCC,1.06
9,CACCCCCCAT,1.62
10,CACCCCCGGG,1.17
11,CACCCCTGTA,1.05
12,CACCCGAGTA,1.03
13,CACCGACGTC,1.36
14,CACCGATGGG,0.98
15,CACCGCGTAA,3.75
16,CACCGGACGT,1.28
17,CACCTACGGA,1.3
18,CACCTCGGCT,1.08
19,CACCTGGAGT,1.05
20,CACCTGTGC,1.05
21,CACCTTTGGG,0.976
22,CACGAAAGCT,1.22
23,CACGAATAAA,1.05
24,CACGAGCAAT,2.47
25,CACGATAGCT,1.12
26,CACGATCTAT,0.993

row,Sequence,switch fluorescence ratio
1,CACGATGGCA,1.21
2,CACGCAGATC,1.75
3,CACGCCTGC,1.1
4,CACGCGGACG,1.01
5,CACGCGTCGT,0.982
6,CACGCTCCGT,1.07
7,CACGGACATT,1.41
8,CACGGAGATA,0.987
9,CACGGAGTTG,1
10,CACGGGTATA,1.02
11,CACGGTACGG,1.19
12,CACGGTTCTT,0.985
13,CACGTCCAAC,1.16
14,CACGTCCACC,1.44
15,CACGTGACCT,1.21
16,CACGTGATAC,3.75
17,CACGTGATAT,1.01
18,CACGTGGAAG,1.01
19,CACGTGGATT,1.04
20,CACGTGGTTT,0.995
21,CACGTTACTA,1.43
22,CACGTTTTAG,1.03
23,CACTACCTGG,1.35
24,CACTAGAATG,1.04
25,CACTAGTTGT,1.03
26,CACTCCAGAG,1.06

row,Sequence,switch fluorescence ratio
1,CACTCCATA,1.09
2,CACTCCGTGG,1.12
3,CACTCCGTTG,1.38
4,CACTCCTAAT,1.12
5,CACTCCTCAC,1.63
6,CACTCCTGAA,1.03
7,CACTCGGGCC,0.981
8,CACTCGTAGC,0.972
9,CACTCTTAGG,1.01
10,CACTGACAGC,1.49
11,CACTGAGACC,1.15
12,CACTGCGGCA,1.04
13,CACTGCGGGA,1.05
14,CACTGCTGCG,1.04
15,CACTGGCAAT,2.81
16,CACTGGGGGG,1.02
17,CACTGGGTAC,1.17
18,CACTGGTGAT,1
19,CACTGTGGG,1
20,CACTGTGTTT,1
21,CACTTATGGG,0.963
22,CACTTCCATG,1.04
23,CACTTGACAA,1.05
24,CACTTGAGAC,1
25,CACTTGCCCT,1.04
26,CACTTGTAGC,1.05

row,Sequence,switch fluorescence ratio
1,CACTTTACCT,1.33
2,CACTTTAGG,0.972
3,CACTTTCGTC,1.03
4,CACTTTGGAC,1.06
5,CACTTTTGTT,0.959
6,CAGAAAAGGG,1.75
7,CAGAAAGG,1.02
8,CAGAACATGG,0.944
9,CAGAACTGAT,1.04
10,CAGAAGCCTT,1.03
11,CAGAAGCGTA,1.13
12,CAGAAGTGC,1.1
13,CAGAAGTTG,1.03
14,CAGAATAAGT,1.01
15,CAGAATCATG,0.963
16,CAGACAAAAC,1.16
17,CAGACATCCC,0.993
18,CAGACCAAGC,1.25
19,CAGACCCAAC,1.16
20,CAGACGAGTG,1.02
21,CAGACGTTTA,0.982
22,CAGACTAATT,1.04
23,CAGACTTCAA,1.07
24,CAGAGAGCAG,1.14
25,CAGAGAGGG,0.932
26,CAGAGATAAT,1

row,Sequence,switch fluorescence ratio
1,CAGAGCTGTG,1.02
2,CAGAGGACGG,0.983
3,CAGAGGCGTA,1.07
4,CAGATCACCC,1.04
5,CAGATGAACA,0.994
6,CAGATGACGC,1.06
7,CAGATGTTAT,0.987
8,CAGATTCTAA,0.992
9,CAGATTGCCT,1.04
10,CAGCACAATT,1.05
11,CAGCACCCCG,1.16
12,CAGCAGACCG,1.03
13,CAGCATACTA,2.27
14,CAGCATCGG,1.06
15,CAGCCATGTG,1.13
16,CAGCCCATGT,1.04
17,CAGCCCTGGG,0.998
18,CAGCCTGTCC,1.17
19,CAGCCTTGGG,0.962
20,CAGCGAGCAC,1.31
21,CAGCGCATTT,1.19
22,CAGCGGAGGC,1.04
23,CAGCGGTTTT,1.01
